# Test results: PubChem BioAssay (NCATS)
# Several values for one entry are separate records, joined by “and”; a condition that tells them apart may be missing. Equal entries are not always repeated. The list shows a part of the results. Shown are side measurements of this screen, not its main read-out; they come without a call. For some of these results: The list favours compounds with an active or inconclusive main result. For some of these results: Potencies come from curve fits of mixed quality, noted in brackets.
# Assay: qHTS drug screen for cell cycle checkpoint inhibitors in PARPi-resistant BRCA-mutant ovarian cancer cell lines. (AID 1963452)
# Conditions: PEO1/OlaR viability, CellTiter-Glo luminescence, 96 h; measured here: PEO4 viability
# Outline: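 PEO1, PEO4 and PEO1/OlaR ovarian cancer cells, 600 per well, exposed 96 h at 37C to a dilution series. Viability read by CellTiter-Glo luminescence, normalized to DMSO and empty wells; activity summarized as Z-AUC.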
# Tags describe the fitted curve by direction and shape.
row,SMILES,AC50
1,O[C@@H](COc1cccc2ncccc12)CN1CCN(C2c3ccccc3[C@@H]3[C@H](c4ccccc42)C3(F)F)CC1 (some centres not stated),"13.8 µM [falling, partial curve]"
2,Cc1c(C(=O)NN2CCCCC2)nn(-c2ccc(Cl)cc2Cl)c1-c1ccc(Cl)cc1,"13.8 µM [falling, partial curve, poor fit]"
3,Cc1cc2c(C(C)C)c(O)c(O)c(C=O)c2c(O)c1-c1c(C)cc2c(C(C)C)c(O)c(O)c(C=O)c2c1O,"27.5 µM [falling, single point]"
4,COC(=O)Nc1nc2ccc(S(=O)c3ccccc3)cc2[nH]1 (configuration not stated),"15.5 µM [falling, partial curve, poor fit]"
5,CN(C)C(=O)C(CCN1CCC(O)(c2ccc(Cl)cc2)CC1)(c1ccccc1)c1ccccc1,"15.5 µM [falling, single point]"
6,Clc1ccc(C(Cn2ccnc2)OCc2ccc(Sc3ccccc3)cc2)c(Cl)c1 (configuration not stated),"15.5 µM [falling, partial curve]"
7,Clc1ccc(C(Cn2ccnc2)OCc2c(Cl)cccc2Cl)c(Cl)c1 (configuration not stated),"17.4 µM [falling, single point]"
8,O=C(c1ccc(OCCN2CCCCC2)cc1)c1c(-c2ccc(O)cc2)sc2cc(O)ccc12,"19.5 µM [falling, partial curve]"
9,NC1(c2ccc(-c3nc4ccn5c(=O)[nH]nc5c4cc3-c3ccccc3)cc2)CCC1,"17.4 µM [falling, partial curve]"
10,O=C1Nc2ccc(Cl)cc2[C@@](C#CC2CC2)(C(F)(F)F)O1,"17.4 µM [falling, single point] and 27.5 µM [falling, single point]"
11,OCCN1CCN(CCCN2c3ccccc3Sc3ccc(C(F)(F)F)cc32)CC1,"19.5 µM [falling, partial curve]"
12,Cc1nc(Nc2ncc(C(=O)Nc3c(C)cccc3Cl)s2)cc(N2CCN(CCO)CC2)n1,"19.5 µM [falling, partial curve]"
13,C[C@@H](NCCCc1cccc(C(F)(F)F)c1)c1cccc2ccccc12,"24.5 µM [falling, single point]"
14,CC(=O)Oc1ccccc1C(=O)Nc1ncc([N+](=O)[O-])s1,"21.9 µM [falling, partial curve]"
15,CCCCCN=C(N)N/N=C/c1c[nH]c2ccc(OC)cc12,"4.36 µM [falling, full curve]"
16,CCCS(=O)c1ccc2nc(NC(=O)OC)[nH]c2c1 (configuration not stated),"27.5 µM [falling, single point]"
17,CCCCc1oc2ccc(NS(C)(=O)=O)cc2c1C(=O)c1ccc(OCCCN(CCCC)CCCC)cc1,"8.71 µM [falling, partial curve]"
18,CCN(CC)CCNC(=O)c1c(C)[nH]c(/C=C2\C(=O)Nc3ccc(F)cc32)c1C,"19.5 µM [falling, partial curve]"
19,C1CCC(C(CC2CCCCN2)C2CCCCC2)CC1 (configuration not stated),"5.49 µM [falling, partial curve]"
20,O=C(O)c1ccc(-n2nc(-c3ccccc3O)nc2-c2ccccc2O)cc1,"5.49 µM [falling, full curve]"

# Assay: qHTS for identification of novel therapeutic agents for treatment of microphthalmiaassociated transcription factor (MiT) renal cell carcinoma (RCC) (AID 1963991);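 further: curves scaled with 100% = DMSO viability and 0% = empty wells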
# Conditions: TFE3-RCC UOK109 viability, CellTiter-Glo, 48 h; measured here: UOK109 Z-AUC; stronger effect = lower value
# Outline: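 UOK109/UOK124/UOK145 (TFE3 fusions, three partners); 500 cells/well; MIPE v4.0, 1912 cpds, 11 conc.; 48 h, 37 C; CellTiter-Glo, 15 min RT; lum. Norm.: DMSO 100%, empty 0%.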
row,SMILES,z-score
1,O[C@@H](COc1cccc2ncccc12)CN1CCN(C2c3ccccc3[C@@H]3[C@H](c4ccccc42)C3(F)F)CC1 (some centres not stated),0.455
2,Cc1c(C(=O)NN2CCCCC2)nn(-c2ccc(Cl)cc2Cl)c1-c1ccc(Cl)cc1,0.298
3,Cc1cc2c(C(C)C)c(O)c(O)c(C=O)c2c(O)c1-c1c(C)cc2c(C(C)C)c(O)c(O)c(C=O)c2c1O,0.0522
4,COC(=O)Nc1nc2ccc(S(=O)c3ccccc3)cc2[nH]1 (configuration not stated),-0.172
5,CN(C)C(=O)C(CCN1CCC(O)(c2ccc(Cl)cc2)CC1)(c1ccccc1)c1ccccc1,0.561
6,Clc1ccc(C(Cn2ccnc2)OCc2ccc(Sc3ccccc3)cc2)c(Cl)c1 (configuration not stated),-0.0559
7,Clc1ccc(C(Cn2ccnc2)OCc2c(Cl)cccc2Cl)c(Cl)c1 (configuration not stated),-0.111
8,O=C(c1ccc(OCCN2CCCCC2)cc1)c1c(-c2ccc(O)cc2)sc2cc(O)ccc12,-0.311
9,Cc1ccc(Nc2nccc(N(C)c3ccc4c(C)n(C)nc4c3)n2)cc1S(N)(=O)=O,0.758
10,NC1(c2ccc(-c3nc4ccn5c(=O)[nH]nc5c4cc3-c3ccccc3)cc2)CCC1,0.288
11,OCCN1CCN(CCCN2c3ccccc3Sc3ccc(C(F)(F)F)cc32)CC1,-0.621
12,Cc1nc(Nc2ncc(C(=O)Nc3c(C)cccc3Cl)s2)cc(N2CCN(CCO)CC2)n1,-3.72
13,CC(=O)Oc1ccccc1C(=O)Nc1ncc([N+](=O)[O-])s1,1.57
14,CCCS(=O)c1ccc2nc(NC(=O)OC)[nH]c2c1 (configuration not stated),0.728
15,CCCCc1oc2ccc(NS(C)(=O)=O)cc2c1C(=O)c1ccc(OCCCN(CCCC)CCCC)cc1,0.175
16,C1CCC(C(CC2CCCCN2)C2CCCCC2)CC1 (configuration not stated),0.442
17,O=C(O)c1ccc(-n2nc(-c3ccccc3O)nc2-c2ccccc2O)cc1,0.638
